# Results from the supplement of paper PMC10724272.
# MIC of invasive clinical C. tropicalis isolates, CLSI broth microdilution (fluconazole 0.12-256 mg/L, up to 1,024 for the azole-resistant cluster and its neighbour group; other ranges not stated); higher = less susceptible. Call: susceptible or wild type [S] / resistant or non-wild type [R] by CLSI breakpoints or cut-offs; intermediate and dose-dependent carry no call. '<=' and '>=' at the end values are inferred; the source marks only some of them. Isolates are numbered anew.
# Compound: C[C@@H]1[C@H](O)[C@@H](C)/C=C/C=C/C=C/C=C/C=C/C=C/C=C/[C@H](O[C@@H]2O[C@H](C)[C@@H](O)[C@H](N)[C@@H]2O)C[C@@H]2O[C@](O)(C[C@@H](O)C[C@@H](O)[C@H](O)CC[C@@H](O)C[C@@H](O)CC(=O)O[C@H]1C)C[C@H](O)[C@H]2C(=O)O [amphotericin B]
# Experiment: CLSI broth microdilution.
row,Test System,MIC
1,"Candida tropicalis isolate 116 (ERG11 copies: 2, Erg11p: no key change)",1 mg/L [S]
2,"Candida tropicalis isolate 123 (ERG11 copies: 2, Erg11p: Y132F, S154F (heterozygous))",1 mg/L [S]
3,"Candida tropicalis isolate 214 (ERG11 copies: 2, Erg11p: no key change)",1 mg/L [S]
4,"Candida tropicalis isolate 70 (ERG11 copies: 7, Erg11p: Y132F, S154F (heterozygous))",1 mg/L [S]
5,"Candida tropicalis isolate 144 (ERG11 copies: 2, Erg11p: no key change)",0.5 mg/L [S]
6,"Candida tropicalis isolate 263 (ERG11 copies: 6, Erg11p: Y132F, S154F (heterozygous))",1 mg/L [S]
7,"Candida tropicalis isolate 102 (ERG11 copies: 2, Erg11p: no key change)",1 mg/L [S]
8,"Candida tropicalis isolate 242 (ERG11 copies: 2, Erg11p: no key change)",1 mg/L [S]
9,"Candida tropicalis isolate 372 (ERG11 copies: 2, Erg11p: no key change)",0.25 mg/L [S]
10,"Candida tropicalis isolate 310 (ERG11 copies: 2, Erg11p: no key change)",0.5 mg/L [S]
11,"Candida tropicalis isolate 129 (ERG11 copies: 7, Erg11p: Y132F, S154F (heterozygous))",1 mg/L [S]
12,"Candida tropicalis isolate 16 (ERG11 copies: 2, Erg11p: no key change)",1 mg/L [S]
13,"Candida tropicalis isolate 136 (ERG11 copies: 2, Erg11p: no key change)",0.5 mg/L [S]
14,"Candida tropicalis isolate 207 (ERG11 copies: 2, Erg11p: Y132F, S154F (homozygous))",1 mg/L [S]
15,"Candida tropicalis isolate 46 (ERG11 copies: 2, Erg11p: no key change)",0.5 mg/L [S]
16,"Candida tropicalis isolate 389 (ERG11 copies: 2, Erg11p: no key change)",1 mg/L [S]

# Compound: CCCCCOc1ccc(-c2ccc(-c3ccc(C(=O)N[C@H]4C[C@@H](O)[C@@H](O)NC(=O)[C@@H]5[C@@H](O)[C@@H](C)CN5C(=O)[C@H]([C@@H](C)O)NC(=O)[C@H]([C@H](O)[C@@H](O)c5ccc(O)cc5)NC(=O)[C@@H]5C[C@@H](O)CN5C(=O)[C@H]([C@@H](C)O)NC4=O)cc3)cc2)cc1 [anidulafungin]
# Experiment: CLSI broth microdilution.
row,Test System,MIC
1,"Candida tropicalis isolate 140 (ERG11 copies: 2, Erg11p: Y132F, S154F (heterozygous))",0.12 mg/L [S]
2,"Candida tropicalis isolate 152 (ERG11 copies: 2, Erg11p: no key change)",≤ 0.015 mg/L [S]
3,"Candida tropicalis isolate 165 (ERG11 copies: 2, Erg11p: no key change)",0.06 mg/L [S]
4,"Candida tropicalis isolate 193 (ERG11 copies: 8, Erg11p: Y132F, S154F (heterozygous))",0.12 mg/L [S]
5,"Candida tropicalis isolate 316 (ERG11 copies: 2, Erg11p: Y132F, S154F (heterozygous))",0.25 mg/L [S]
6,"Candida tropicalis isolate 240 (ERG11 copies: 2, Erg11p: no key change)",≤ 0.015 mg/L [S]
7,"Candida tropicalis isolate 418 (ERG11 copies: 2, Erg11p: no key change)",0.06 mg/L [S]
8,"Candida tropicalis isolate 379 (ERG11 copies: 2, Erg11p: no key change)",≤ 0.015 mg/L [S]
9,"Candida tropicalis isolate 395 (ERG11 copies: 2, Erg11p: no key change)",0.06 mg/L [S]
10,"Candida tropicalis isolate 196 (ERG11 copies: 2, Erg11p: no key change)",0.03 mg/L [S]
11,"Candida tropicalis isolate 190 (ERG11 copies: 5, Erg11p: Y132F, S154F (heterozygous))",0.06 mg/L [S]
12,"Candida tropicalis isolate 304 (ERG11 copies: 2, Erg11p: Y132F, S154F (heterozygous))",0.12 mg/L [S]
13,"Candida tropicalis isolate 173 (ERG11 copies: 2, Erg11p: no key change)",0.03 mg/L [S]
14,"Candida tropicalis isolate 200 (ERG11 copies: 2, Erg11p: no key change)",0.12 mg/L [S]
15,"Candida tropicalis isolate 255 (ERG11 copies: 2, Erg11p: no key change)",0.12 mg/L [S]
16,"Candida tropicalis isolate 116 (ERG11 copies: 2, Erg11p: no key change)",≤ 0.015 mg/L [S]

row,Test System,MIC
1,"Candida tropicalis isolate 123 (ERG11 copies: 2, Erg11p: Y132F, S154F (heterozygous))",0.03 mg/L [S]
2,"Candida tropicalis isolate 214 (ERG11 copies: 2, Erg11p: no key change)",≤ 0.015 mg/L [S]
3,"Candida tropicalis isolate 70 (ERG11 copies: 7, Erg11p: Y132F, S154F (heterozygous))",≤ 0.015 mg/L [S]
4,"Candida tropicalis isolate 144 (ERG11 copies: 2, Erg11p: no key change)",0.12 mg/L [S]
5,"Candida tropicalis isolate 263 (ERG11 copies: 6, Erg11p: Y132F, S154F (heterozygous))",0.06 mg/L [S]
6,"Candida tropicalis isolate 102 (ERG11 copies: 2, Erg11p: no key change)",≤ 0.015 mg/L [S]
7,"Candida tropicalis isolate 242 (ERG11 copies: 2, Erg11p: no key change)",0.03 mg/L [S]
8,"Candida tropicalis isolate 372 (ERG11 copies: 2, Erg11p: no key change)",0.12 mg/L [S]
9,"Candida tropicalis isolate 310 (ERG11 copies: 2, Erg11p: no key change)",0.12 mg/L [S]
10,"Candida tropicalis isolate 129 (ERG11 copies: 7, Erg11p: Y132F, S154F (heterozygous))",0.12 mg/L [S]
11,"Candida tropicalis isolate 16 (ERG11 copies: 2, Erg11p: no key change)",0.06 mg/L [S]
12,"Candida tropicalis isolate 136 (ERG11 copies: 2, Erg11p: no key change)",0.03 mg/L [S]
13,"Candida tropicalis isolate 207 (ERG11 copies: 2, Erg11p: Y132F, S154F (homozygous))",≤ 0.015 mg/L [S]
14,"Candida tropicalis isolate 46 (ERG11 copies: 2, Erg11p: no key change)",0.12 mg/L [S]
15,"Candida tropicalis isolate 389 (ERG11 copies: 2, Erg11p: no key change)",0.12 mg/L [S]

# Compound: OC(Cn1cncn1)(Cn1cncn1)c1ccc(F)cc1F [fluconazole]
# Experiment: CLSI broth microdilution.
row,Test System,MIC
1,"Candida tropicalis isolate 140 (ERG11 copies: 2, Erg11p: Y132F, S154F (heterozygous))",16 mg/L [R]
2,"Candida tropicalis isolate 152 (ERG11 copies: 2, Erg11p: no key change)",0.25 mg/L [S]
3,"Candida tropicalis isolate 165 (ERG11 copies: 2, Erg11p: no key change)",4 µg/mL
4,"Candida tropicalis isolate 193 (ERG11 copies: 8, Erg11p: Y132F, S154F (heterozygous))",1020 mg/L [R]
5,"Candida tropicalis isolate 316 (ERG11 copies: 2, Erg11p: Y132F, S154F (heterozygous))",256 mg/L [R]
6,"Candida tropicalis isolate 240 (ERG11 copies: 2, Erg11p: no key change)",2 mg/L [S]
7,"Candida tropicalis isolate 418 (ERG11 copies: 2, Erg11p: no key change)",2 mg/L [S]
8,"Candida tropicalis isolate 379 (ERG11 copies: 2, Erg11p: no key change)",2 mg/L [S]
9,"Candida tropicalis isolate 395 (ERG11 copies: 2, Erg11p: no key change)",1 mg/L [S]
10,"Candida tropicalis isolate 196 (ERG11 copies: 2, Erg11p: no key change)",0.5 mg/L [S]
11,"Candida tropicalis isolate 190 (ERG11 copies: 5, Erg11p: Y132F, S154F (heterozygous))",256 mg/L [R]
12,"Candida tropicalis isolate 304 (ERG11 copies: 2, Erg11p: Y132F, S154F (heterozygous))",16 mg/L [R]
13,"Candida tropicalis isolate 173 (ERG11 copies: 2, Erg11p: no key change)",1 mg/L [S]
14,"Candida tropicalis isolate 200 (ERG11 copies: 2, Erg11p: no key change)",0.5 mg/L [S]
15,"Candida tropicalis isolate 255 (ERG11 copies: 2, Erg11p: no key change)",2 mg/L [S]
16,"Candida tropicalis isolate 116 (ERG11 copies: 2, Erg11p: no key change)",2 mg/L [S]
17,"Candida tropicalis isolate 123 (ERG11 copies: 2, Erg11p: Y132F, S154F (heterozygous))",32 mg/L [R]
18,"Candida tropicalis isolate 214 (ERG11 copies: 2, Erg11p: no key change)",2 mg/L [S]
19,"Candida tropicalis isolate 70 (ERG11 copies: 7, Erg11p: Y132F, S154F (heterozygous))",256 mg/L [R]
20,"Candida tropicalis isolate 144 (ERG11 copies: 2, Erg11p: no key change)",2 mg/L [S]
21,"Candida tropicalis isolate 263 (ERG11 copies: 6, Erg11p: Y132F, S154F (heterozygous))",256 mg/L [R]
22,"Candida tropicalis isolate 102 (ERG11 copies: 2, Erg11p: no key change)",2 mg/L [S]
23,"Candida tropicalis isolate 242 (ERG11 copies: 2, Erg11p: no key change)",1 mg/L [S]
